Measurements reported in PubChem BioAssay AID493208 (National Center for Advancing Translational Sciences (NCATS), 2011).
Hit rate of the full screen: of about 44,000 compounds, about 340 (0.77%) were called active. About 5% were inconclusive and are not listed. Calls come from the whole dose curve; as a rule, active = well fitted inhibition curve with a large enough effect; inconclusive = small, poorly fitted or top-dose-only effect; inactive = flat fitted curve, though single readings scatter. Some of the results follow.

test: Acumen qHTS Assay for Inhibitors of the mTORC1 Signaling Pathway in MEF (Tsc2-/-, p53-/-) Cells: Sytravon; conditions: phospho-rpS6 immunofluorescence/PI, 24 h; series mostly up to 38.3 µM; activity change, negative = inhibition: at the top concentration; note: nearly all actives have a fitted effect of over 50% in size;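 for activity change, negative = inhibition: plate controls were DMSO for no effect and rapamycin for full effect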
Procedure, shortened: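 Plate MEFs (Tsc2-/-, p53-/-, empty vector) in DMEM/10% FBS; after 24 h add compound, incubate 24 h at 37 degree Celsius; fix in PFA/TX-100, block, stain phospho-rpS6 and 10 uM PI; scan at 488 nm; report % positive cells.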
Potency is the fitted concentration of half-maximal effect.

Row | Structure (SMILES) | activity change, negative = inhibition | Potency
1 | O=C(CCn1cnc2onc(-c3ccc(F)cc3)c2c1=O)N1CCN(c2ccccc2F)CC1 | inactive: -7.25% | –
2 | CCOC(=O)C1CCCN(C(=O)c2ccc(NC(=O)c3nsc4ccccc34)cc2)C1 (stereo unspecified) | inactive: 12.8% | –
3 | Cc1ccc2c(CC(=O)N(Cc3cccc(Cl)c3)C3CCS(=O)(=O)C3)coc2c1 (stereo unspecified) | inactive: -2.74% | –
4 | Cc1ccc(C(=O)CC2(O)C(=O)N(Cc3ccccc3)c3ccccc32)c(C)c1 (stereo unspecified) | – | active: 18.5 µM
5 | CNS(=O)(=O)c1cn(CC(=O)N2CCN(c3ccccc3OC)CC2)cc1S(=O)(=O)NC | inactive: -0.0851% | –
6 | COC(=O)c1ccccc1NC(=O)Cn1c(=O)cc(C)c2c(C)nn(-c3cccc(Cl)c3C)c21 | inactive: 3.23% | –
7 | COc1ccc(Cl)cc1NC(=O)Cn1cnc2sc(C)c(S(=O)(=O)N3CCN(c4ccccc4OC)CC3)c2c1=O | inactive: 0.724% | –
8 | O=C(CC1Nc2cccc3cccc(c23)NC1=O)Nc1ccc(F)cc1 (stereo unspecified) | inactive: -10.4% | –
9 | Cc1ccc2c(c1)C(c1ccc(F)cc1)N(C(=O)c1cccc(C(F)(F)F)c1)CC(=O)N2 (stereo unspecified) | inactive: -12.4% | –
10 | Cc1ccc(-n2nnnc2CNC(=O)c2ccccc2C)cc1C | inactive: 3.62% | –
11 | COc1cccc(N2CCN(Cc3cc(=O)oc4cc(C)ccc34)CC2)c1 | inactive: -2.69% | –
12 | N#Cc1cccc(NC(=O)CCNS(=O)(=O)c2ccc3c(c2)CCN3C(=O)C2CC2)c1 | inactive: 4.19% | –
13 | O=C(Nc1nnc(S(=O)(=O)N2CCc3ccccc32)s1)c1ccccc1Cl | inactive: 7.87% | –
14 | CCOC(=O)c1c(C)[nH]c(CCC(=O)NCCCN2CCN(c3ccccc3F)CC2)c1C | inactive: 4.35% | –
15 | Cc1c2cnn(CC(=O)N3CCN(c4ccc(F)cc4)CC3)c(=O)c2c(C)n1Cc1ccccc1F | inactive: 0.0492% | –
16 | Cc1cc(C)cc(-n2ccnc2SCC(=O)Nc2nc3ccc(C)cc3s2)c1 | inactive: 0.643% | –
17 | COc1ccc(-c2nc(Cn3c(=O)cc(C)c4c(C)nn(-c5ccccc5)c43)c(C)o2)c(OC)c1 | inactive: -10% | –
18 | CN(C)c1ccc(CNC(=O)Cn2ccc3cc(S(=O)(=O)N4CCCCCC4)ccc32)cc1 | inactive: 0.202% | –
19 | Cc1cccc(OCC(=O)Nc2ccc(-c3nc4cc(C)ccc4o3)c(O)c2)c1 | inactive: 10.5% | –
20 | CCC1CN(C(=O)N2CCC(C(=O)NCCC3=CCCCC3)CC2)c2cc(C)ccc2O1 (stereo unspecified) | inactive: 5% | –
21 | CCn1cc2nc(SCc3ccc(C)cc3)n(CCc3ccccc3)c(=O)c2n1 | inactive: -2.47% | –
22 | Cc1ccc(OCC(=O)Nc2ccc(Cl)c(-c3nc4ccccc4[nH]3)c2)cc1C | inactive: -11.6% | –
23 | COc1ccc(S(=O)(=O)N(CC(=O)N(C)Cc2ccccc2)c2ccc(Cl)cc2)cc1 | inactive: -2.32% | –

Row | Structure (SMILES) | activity change, negative = inhibition | Potency
24 | COc1ccc(NC(=O)CSc2nnc(NC(=O)Nc3ccccc3)s2)c(OC)c1 | inactive: 0.0486% | –
25 | CCc1ccc(NC(=O)CSc2nc3ccccc3nc2Cc2ccccc2OC)cc1 | inactive: -0.407% | –
26 | Cc1cc(C)cc(NC(=O)N2CCN3CCCCC3C2)c1 (stereo unspecified) | inactive: 0.177% | –
27 | CCOC(=O)c1ccc(NC(=O)c2c(NCc3sccc3C)sc3c2CCCCC3)cc1 | inactive: -2.04% | –
28 | CC(C)(C)c1ccc(C(=O)NC(Cc2c[nH]c3ccccc23)C(=O)OCC(=O)c2ccccc2)cc1 (stereo unspecified) | inactive: 2.06% | –
29 | O=C(NC1CCCCC1)c1c[nH]c2ccc(S(=O)(=O)Nc3ccccc3F)cc2c1=O | inactive: 3.28% | –
30 | CC1CCCN(c2cc3c(cc2F)c(=O)c(S(=O)(=O)c2cccc(Cl)c2)cn3C)C1 (stereo unspecified) | inactive: 0.165% | –
31 | COc1ccc(Cn2c(=O)[nH]c3cc(C(=O)N4CCN(c5cccc(OC)c5)CC4)ccc3c2=O)cc1 | inactive: -15.3% | –
32 | Cn1cc(C(=O)NCc2ccc(Cl)cc2)c(=O)c2cc(S(=O)(=O)N3CCCCCC3)ccc21 | inactive: -8.13% | –
33 | COc1cccc(C(=O)Nc2cc3cc(OC)ccc3oc2=O)c1 | inactive: -0.069% | –
34 | Cc1cc(C)c2c(n1)SCCN2C(=O)Nc1ccc(C(=O)Nc2cc(Cl)ccc2C)cc1 | inactive: -1.04% | –
35 | Cc1cc(C(=O)NCCc2ccc(Cl)cc2)c2c(C)nn(-c3cccc(F)c3)c2n1 | inactive: 2.77% | –
36 | COC(=O)c1cc2sc(Cl)cc2n1Cc1nc(-c2ccc(OC)cc2)oc1C | inactive: 3.65% | –
37 | COc1ccc(N(CC(=O)NCCc2cccc(C)c2)S(=O)(=O)c2c(C)noc2C)cc1 | inactive: -0.341% | –
38 | Cc1ccc(Cl)cc1NC(=O)COCc1cc(-c2ccco2)on1 | inactive: -9.64% | –
39 | CCCCSCCCNC(=O)CN1C(=O)COc2ccc(S(=O)(=O)N3CCC(C)CC3)cc21 | inactive: -2% | –
40 | O=C(Nc1nnc(S(=O)(=O)N2CCN(c3ccc(F)cc3)CC2)s1)c1ccc(Cl)cc1 | inactive: 6.76% | –
41 | Cc1ccc(C(=O)Nc2ccc(C(=O)OCc3cc(=O)n4ccsc4n3)cc2)cc1 | inactive: 0% | –
42 | COC(=O)c1ccc(NC(=O)Cn2nc(C(=O)Nc3ccc(C)cc3)ccc2=O)cc1 | inactive: 5.45% | –
43 | COc1ccccc1N1CCN(c2ncnc3c2nc2n3CCCC2)CC1 | inactive: -19.8% | –
44 | Cc1ccc(NC(=O)Cn2c(CCC(=O)O)ccc2-c2ccc(Cl)cc2)cc1 | inactive: 0.628% | –
45 | Cc1ccc(Cn2cc(CCC(=O)NCc3ccccc3F)c3ccccc32)cc1 | inactive: -1.38% | –
46 | CCN(CC)S(=O)(=O)c1ccc2c(c1)N(CC(=O)N(C)Cc1ccccc1)C(=O)CO2 | inactive: 1.53% | –
